Data taken from PMC12136788.
Some of the results follow.

B1: chr1:205715917:205716022:-|3pUTR|ENSG00000069275|msi1_unk|FALSE|overlapping (ssRNA)
RNA: GGGAGUUCUACAGUCCGACGAUCGAGACAGGCUCUGAAUAACCUUUGUUUUCUCCACUUUUUAUUGAUGAUUUAAAACACUCUAGUCUUCCCCUCAAAUCAUGCAUGCAAAUAGGAGGACAGUGGUGGUGACUCAACUGGAUACAACAGAGGAUUGAGCAUCA
B2: chr1:202892395:202892497:-|3pUTR|ENSG00000117153|unk|FALSE|unique (ssRNA)
RNA: GGGAGUUCUACAGUCCGACGAUCGCGAGAAGUGACCAUUGUUGGAGCACCAUCCAGAGCUAGUGACCAGUCCAGUGGACAGUUAGUGGGAGAAUCAAAAAUCCUUUCCAGAAUGUCUGUUUCUCACUAUGUGCACCGGGUGAUCAACAGAGGAUUGAGCAUCA
B3: chr1:51271806:51271833:+|3pUTR|ENSG00000123091|msi1_unk|total|mutant (ssRNA)
RNA: GGGAGUUCUACAGUCCGACGAUCCAUUUGGGUCAAGGUUUUAUUAAAAGCUACAUUUUAUAACACUGGCACACACAAAAAAGCCGUUUUAAGCUUGUUUGCACAGUUCUUUUUUUCCAUUGGAAAUGGAAUUCAUUGCCUCCGCAACAGAGGAUUGAGCAUCA
B4: chr4:81602736:81602922:-|CDS|ENSG00000138670|control|control|control (ssRNA)
RNA: GGGAGUUCUACAGUCCGACGAUCUUCCAUGUACAGCAGCAUAACUCCAGUUUGCUUUCCAAGCCCUCUGAUUGAGAAGCCAAUAGGCAAAGUAAGAAUGAACCUACUUUUAUCAGACACUAUGAUUCGAGCCAGUUGGCUGUUCAACAGAGGAUUGAGCAUCA
B5: chr17:30248266:30248367:-|3pUTR|ENSG00000108578|msi1|FALSE|unique (ssRNA)
RNA: GGGAGUUCUACAGUCCGACGAUCUUGGGUGAGAACAACCAAAAUCUUAUCAUGGUCUCAGUCAUAAUCAUUAGGGGGAACUCUAGCCAAAUGGUUUAACUUCUGCCUGUGGAACUGGGGAUUGGGUGGGCAGGAAAAGGUGAUCAACAGAGGAUUGAGCAUCA
B6: chr7:157269180:157269282:+|3pUTR|ENSG00000009335|unk|total|mutant (ssRNA)
RNA: GGGAGUUCUACAGUCCGACGAUCAUUUCCGGUUGUUUUAUGUUGAAUGUUCUAUAUCUUAUCCGUUAAUUUGUAUAUUUUAUCCGUAUUUUGGAAACCGCAUAUCUGAGACUGAAGAGAAAUUGACAAUUCACUUAUUUGUGGCAACAGAGGAUUGAGCAUCA
B7: chrX:129805617:129805718:-|3pUTR|ENSG00000188706|msi1|FALSE|unique (ssRNA)
RNA: GGGAGUUCUACAGUCCGACGAUCUCUUUUCCCAUUAGAUAUAUGUAAGUAGUUGUAGUAGAGAUAAUAAUUGACAUUUCUCGUAGACUACCCAGAAACUUUUUUAAUACCUGUGCCAUUCUCAAUAAGAAUUUAUGAGAUGCCCAACAGAGGAUUGAGCAUCA
B8: chr12:95077336:95077437:-|3pUTR|ENSG00000180263|msi1|FALSE|unique (ssRNA)
RNA: GGGAGUUCUACAGUCCGACGAUCUCCUCAUUGACCCAUCCGCAUCUCUGUUUAUCCAAGACUUCUCUGUGAUAGCUGACCCUUAGUCUUUCUCUCCCCUAUUCCUCCAGACUAGAUCCUGUCUCCUUCCUGCAGCCCCGACACCAACAGAGGAUUGAGCAUCA
B9: ENSG00000070961:be:win_2701|CDS|ENSG00000070961|bound_else_gene|NA|bound_elsewhere_windowed (ssRNA)
RNA: GGGAGUUCUACAGUCCGACGAUCGCUCUGGCAACGGAACCACCCACUGAGUCUCUCUUGCUUCGGAAACCUUAUGGUAGAAAUAAGCCUCUCAUCUCACGUACAAUGAUGAAGAAUAUUUUGGGUCAUGCAUUCUAUCAACUUCAACAGAGGAUUGAGCAUCA
B10: chr12:57626096:57626197:-|3pUTR|ENSG00000135454|msi1|FALSE|unique (ssRNA)
RNA: GGGAGUUCUACAGUCCGACGAUCGUGUCUCUGCAAUGCUGUGGGCACAAAAGAAGGGGCACCAGAGUCCCUGUGCAAACACCUAGACUCACUUCAUGGAUUCCAAAGCUCUCAGCUUCAUUUUAUUAGUUACGUUAGGUAAGGCAACAGAGGAUUGAGCAUCA
B11: chr18:54155150:54155251:-|3pUTR|ENSG00000134046|unk|FALSE|unique (ssRNA)
RNA: GGGAGUUCUACAGUCCGACGAUCUUUCCACUGGCUUUUGCCUGUAAGAAAAAAAAUGUACCCGAGCACAUAGAGCUUUUUAAUAGCACUAACCAAUGCCUUUUUAGAUGUAUUUUUGAUGUAUAUAUCUAUUAUUCAAAAAAUCAACAGAGGAUUGAGCAUCA
B12: ENSG00000107863:be:win_4901|CDS|ENSG00000107863|bound_else_gene|NA|bound_elsewhere_windowed (ssRNA)
RNA: GGGAGUUCUACAGUCCGACGAUCAAACCGACAGCGAGAGCGAGUUUCCCGUGUUCCCCACAGCCUUGACUUCAGAGAGGCUUUUCCGAGGAAAACUGCAAGAAGUGACUAAGAGCAGCCGGAGAAAUUCUGAAGGAAGUGAAUCAACAGAGGAUUGAGCAUCA
B13: ENSG00000198589:be:win_6001|CDS|ENSG00000198589|bound_else_gene|NA|bound_elsewhere_windowed (ssRNA)
RNA: GGGAGUUCUACAGUCCGACGAUCGGAUCGACACAUCCUGAAGCGACACUAAAAACAGCCGUGGAACAUGCCACAGAUGAAGAUAUCCUUGCUAAAGGAAAACAGUCCAUCAGGAGUCAGGCUUUAGGAAAUCAGAACUCAGAACAACAGAGGAUUGAGCAUCA
B14: chr3:44491765:44499181:-|three_prime_utr|ENSG00000178917|control|control|control (ssRNA)
RNA: GGGAGUUCUACAGUCCGACGAUCACUAAUCACAGUGGAGACCAUACCUACUUGCUUUUCCUUGGGUCACUAAGGUGGGAGAGUAGGUGCAACUUAGUCUGAUCCUUACUUAGUAGGAAAUUGGGGAUUACAUCUGUCAUUAACCAACAGAGGAUUGAGCAUCA
B15: chr2:171482635:171482736:+|3pUTR|ENSG00000115827|unk|total|mutant (ssRNA)
RNA: GGGAGUUCUACAGUCCGACGAUCCAAGAGUGUUUCAGAACCGGAUGUCUUAAGACUUCAGUCAUGUCAGAGAUUUUUUUUUUCCGGUGAUUAUUGAGUUUCUCCUUCUCCUUUAAGUCAUCACCUUCCUUUUAUGAAAUGAUACAACAGAGGAUUGAGCAUCA
B16: chr14:71589133:71589262:+|CDS|ENSG00000197555|unk|total|mutant (ssRNA)
RNA: GGGAGUUCUACAGUCCGACGAUCGAGACCGGUGGAGAAGGGGAGAGGAAAAUCAGCCUUUCAAAAUCAAAUUCUGGCUCCUUCCGUGGAUGUGAAAGUGCCUCCUUUGAGUCUACCCUCCGUUCCCAUUGCACAAAUGCAGGACAACAGAGGAUUGAGCAUCA
B17: ENSG00000107863:be:win_2101|CDS|ENSG00000107863|bound_else_gene|NA|bound_elsewhere_windowed (ssRNA)
RNA: GGGAGUUCUACAGUCCGACGAUCGGUACUUCAGAUUUAGAACUACCUGUCAGUCAAAGGAAUCAAGAUUUAAGUUUACAAGAGGCUGAAACUGAGCAAUCAGAUACUUUAGAUAAUAAAGAAGCUGUCAUCCUAAGGGAAAAACAACAGAGGAUUGAGCAUCA
B18: ENSG00000136451:be:win_2651|3pUTR|ENSG00000136451|bound_else_gene|NA|bound_elsewhere_windowed (ssRNA)
RNA: GGGAGUUCUACAGUCCGACGAUCUUUAAAUUUCUCCUUCCGUUUCUUAAGUAUUGCGCAGAUUUGUUCAACUUUGUAAAUAUGGACAUCACUUUUUUUUUCUUUGAGAAAACACUUGUAUCAGCUUUGUGGUGUUUUCAGGGACAACAGAGGAUUGAGCAUCA
B19: chr2:227144361:227144754:-|three_prime_utr|ENSG00000081052|control|control|control (ssRNA)
RNA: GGGAGUUCUACAGUCCGACGAUCGGCAAUGAUGGCAGCCAGAGAGAGGAAAGCAUGGAUCUUGUCACUGAUGACAAGUCGGCUAGUAGGAGCAGCCUCAUAGAAAUAAAAAGUAGCUUUCUGGAAUUAAUUCCUUUACUCUUUCAACAGAGGAUUGAGCAUCA
B20: ENSG00000070961:be:win_1651|CDS|ENSG00000070961|bound_else_gene|NA|bound_elsewhere_windowed (ssRNA)
RNA: GGGAGUUCUACAGUCCGACGAUCGGACUUCUUUUGGAUUUAAAACGGGAUUAUCAGGAUGUUAGAAAUGAAAUACCAGAAGAAGCACUGUACAAAGUCUACACCUUCAAUUCUGUUAGGAAGUCCAUGAGUACUGUCCUGAAACAACAGAGGAUUGAGCAUCA
B21: ENSG00000136451:be:win_2351|3pUTR|ENSG00000136451|bound_else_gene|NA|bound_elsewhere_windowed (ssRNA)
RNA: GGGAGUUCUACAGUCCGACGAUCGAAGUCAAGUGUGUGGACAGGCAAGCUCCUAAUAAACAGAGUCCAGUGGGAUUCCUAUUUAGGAGCCAAGGAGUACUUUGGAACAGUACAAAUAUAUUGCUUUAAAUUGGAAGACGCUGGCAACAGAGGAUUGAGCAUCA
B22: chr12:85264020:85264122:+|3pUTR|ENSG00000133640|unk|FALSE|unique (ssRNA)
RNA: GGGAGUUCUACAGUCCGACGAUCCAUAGUAUUUCAGUUACUUUCCACAGCUGUGUUGCUCAAUAAUAGCAUCCAGUGAACUUUAGUAUUUUUUUGUUUUUCCUGUAUUUUAUUAAAAUAUUUCAUCUAGAGAUAACUGAAGUGCAACAGAGGAUUGAGCAUCA

Molecular target: MSI1 full-length (mouse, UniProt Q61474 1-362)
Test: nsRBNS (natural sequence RNA bind-n-seq); RBNS binding buffer (assumed for nsRBNS): 25 mM Tris pH 7.5, 150 mM KCl, 3 mM MgCl2, 0.01% Triton X-100, 500 ug/ml BSA, 20 U/ml SUPERase-In, 4 C; UNK is unkempt and MSI1 is Musashi-1; names of the RNAs are library labels; protein concentration not given here; high values mean tight binding

Chain of UniProt Q61474 (Q61474 whole entry): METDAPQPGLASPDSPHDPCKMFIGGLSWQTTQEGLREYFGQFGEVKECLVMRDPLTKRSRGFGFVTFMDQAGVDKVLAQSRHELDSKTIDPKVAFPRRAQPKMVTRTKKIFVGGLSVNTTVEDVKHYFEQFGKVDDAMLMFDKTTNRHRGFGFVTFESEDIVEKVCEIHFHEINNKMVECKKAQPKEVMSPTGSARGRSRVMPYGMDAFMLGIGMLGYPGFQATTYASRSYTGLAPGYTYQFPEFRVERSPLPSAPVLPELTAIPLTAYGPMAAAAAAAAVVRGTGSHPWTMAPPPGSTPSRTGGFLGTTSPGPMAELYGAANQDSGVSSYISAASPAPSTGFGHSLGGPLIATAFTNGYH

Binder | binding signal [enrichment R]
B1 | 0.61
B2 | 0.328
B3 | 0.297
B4 | 0.352
B5 | 0.573
B6 | 1.39
B7 | 71.9
B8 | 1.24
B9 | 0.578
B10 | 13.5
B11 | 0.813
B12 | 0.382
B13 | 0.325
B14 | 0.646
B15 | 0.495
B16 | 0.392
B17 | 1.29
B18 | 0.782
B19 | 2.59
B20 | 0.47
B21 | 0.512
B22 | 3.88
